Measured values reported in the supplement of paper PMC3334620.
Over roughly 33,000 sequences, “E-score (-0.5 to 0.5)” has its median near -0.012; the highest 2% begin near 0.29. This is one part of the list.

target: T1, Ybr033w (UniProt P38073); assay: PBM E-score (8-mer binding enrichment) (E-score (-0.5 to 0.5)); higher = stronger / more preferred TF binding; most listed sequences are background and not binding sites; settings: protein concentration: 200 nM; construct: GST-full length
T1 sequence: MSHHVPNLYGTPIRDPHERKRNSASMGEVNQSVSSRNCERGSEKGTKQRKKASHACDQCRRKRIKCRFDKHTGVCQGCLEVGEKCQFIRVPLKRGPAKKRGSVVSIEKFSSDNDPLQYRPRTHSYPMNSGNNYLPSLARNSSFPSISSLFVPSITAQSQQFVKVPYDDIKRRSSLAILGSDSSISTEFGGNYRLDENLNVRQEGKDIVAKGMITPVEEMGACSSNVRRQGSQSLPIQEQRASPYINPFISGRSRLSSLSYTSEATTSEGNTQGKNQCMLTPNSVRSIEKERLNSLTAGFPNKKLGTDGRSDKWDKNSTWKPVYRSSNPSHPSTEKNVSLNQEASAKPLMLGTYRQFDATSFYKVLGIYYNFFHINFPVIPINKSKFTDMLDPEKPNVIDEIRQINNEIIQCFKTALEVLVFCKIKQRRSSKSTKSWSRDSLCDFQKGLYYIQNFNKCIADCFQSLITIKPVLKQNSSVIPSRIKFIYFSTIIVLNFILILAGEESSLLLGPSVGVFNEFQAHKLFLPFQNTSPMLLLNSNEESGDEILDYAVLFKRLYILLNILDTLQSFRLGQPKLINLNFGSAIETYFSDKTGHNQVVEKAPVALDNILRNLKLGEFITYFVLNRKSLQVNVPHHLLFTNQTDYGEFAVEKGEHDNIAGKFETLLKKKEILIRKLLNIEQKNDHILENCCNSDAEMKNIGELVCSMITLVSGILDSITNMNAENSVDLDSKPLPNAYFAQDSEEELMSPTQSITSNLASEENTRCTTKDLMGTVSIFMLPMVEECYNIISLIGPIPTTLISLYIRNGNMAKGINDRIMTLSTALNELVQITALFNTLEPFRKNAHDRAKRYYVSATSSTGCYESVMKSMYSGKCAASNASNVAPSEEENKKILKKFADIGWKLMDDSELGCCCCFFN
Summary of the method: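 Yeast transcription factors, full-length or as DNA-binding domains, were expressed with a GST tag using PURExpress in vitro transcription/translation. At about 100-200 nM they were applied to universal all-10-mer Agilent arrays, double-stranded by primer extension on fresh or once-stripped slides. Fluorescent anti-GST detected bound protein, and masliner normalised the scans. E-scores for ungapped eight-base words, pooled with reverse complements, came from the Universal PBM Analysis Suite.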

Row | Sequence | PBM E-score
1 | CAACGCTC | -0.131
2 | GCGTTTCC | -0.069
3 | AGTCGTAG | -0.141
4 | GCATATTA | 0.14
5 | GTACGTCA | -0.0422
6 | AGCGTGAT | -0.112
7 | GAGTTCTA | 0.021
8 | ATGATTCG | 0.0644
9 | CTACCTTA | -0.0197
10 | TACAGGAA | 0.0821
11 | CCTTTCAC | 0.0584
12 | ATTGGCCG | -0.143
13 | GCGTTACA | 0.0401
14 | GCAGCAGA | -0.0571
15 | ATCTGTGG | -0.1
16 | AGTACTTC | 0.118
17 | GCCCTGTA | -0.0611
18 | GTTTTCTA | 0.276
19 | ATAATCCG | 0.383
20 | GCAAAAAA | 0.284
21 | ATTCCGGA | 0.387
22 | GAAAAAGA | 0.231
23 | TATAATGA | 0.171
24 | CAGGAATC | 0.113
25 | CGTATCCC | -0.155

Row | Sequence | PBM E-score
26 | CGCACCAG | -0.0226
27 | ATTAAGTG | 0.167
28 | GGTTCAAA | 0.0694
29 | AGAACCAG | -0.0518
30 | GCGCCACC | -0.215
31 | GCGCGGGA | -0.168
32 | ATTTCATC | 0.222
33 | TCGCACCA | -0.0242
34 | CGCACGGA | -0.102
35 | GAGATTAC | 0.0931
36 | CTACACCC | -0.269
37 | CGGTCGCC | -0.261
38 | GCGGCCAC | -0.273
39 | ACCACACT | -0.00237
40 | TTACCCAA | 0.0264
41 | CGGTATCC | -0.266
42 | ATAAATAT | 0.396
43 | CTGAGGGC | -0.34
44 | ATAATTGA | 0.265
45 | GACGAAGA | 0.0535
46 | TAGTGCGA | -0.0305
47 | CCCTCGCG | -0.226
48 | TAGCTTGA | -0.0114
49 | CGTGTAAC | 0.0936
50 | ATCCCTCC | -0.0542

Row | Sequence | PBM E-score
51 | AGTGAGAA | 0.125
52 | AGTACCAT | 0.0195
53 | GCTCGCTA | -0.0129
54 | ATAGGAGG | -0.188
55 | TGGAATAA | 0.417
56 | CAGACATG | -0.0854
57 | AGCTACCC | -0.096
58 | ATTATGCC | 0.126
59 | ACAACCGA | 0.0383
60 | CGACCGTC | -0.279
61 | AGCGCGCG | 0.0624
62 | AATTCACT | 0.249
63 | ATCCTCAC | 0.0712
64 | ATTGAAGA | 0.0645
65 | ACAGTCCT | -0.167
66 | AAACCTCG | -0.0726
67 | ATCTAAAA | 0.0739
68 | CTGATAAC | 0.0552
69 | CGCACTCC | -0.148
70 | AATTTTTC | 0.31
71 | ACCCGAAT | -0.0501
72 | ACTGACTG | -0.121
73 | TAATACTA | 0.362
74 | AACGGACA | -0.0682
75 | AGGCGTAC | -0.103

Row | Sequence | PBM E-score
76 | ACGGAGCC | -0.209
77 | CCTAATGC | -0.0998
78 | ACAGTGCC | -0.0506
79 | ACCTCGGC | 0.0555
80 | ACTTGTAG | 0.0973
81 | GACTTAGC | -0.116
82 | TCCTCGAA | 0.126
83 | GAAAATTC | 0.285
84 | ATCCGCAC | 0.181
85 | ATCTTGCC | -0.0408
86 | CCATAAAG | 0.01
87 | AGACGCAT | -0.025
88 | GGATACAC | 0.0433
89 | CACAATCA | 0.0822
90 | CTAGTTTC | 0.14
91 | TCCCCGGA | 0.0481
92 | GAACCGCC | -0.0843
93 | CAGGGGAA | -0.0526
94 | CGTTCGCC | -0.0782
95 | CGTAAGGC | -0.296
96 | GTAACAAC | 0.124
97 | AAGTCTTA | -0.00514
98 | GGCGTGCA | -0.204
99 | GCTAACAA | 0.00129
100 | TACACACA | 0.264

Row | Sequence | PBM E-score
101 | CTAACAAA | 0.141
102 | CGTCGATC | 0.139
103 | CTCATCGC | -0.035
104 | ACCATAGA | -0.113
105 | GTGCATGA | 0.043
106 | AACCAGTA | 0.0849
107 | AAACTGAT | -0.07
108 | GCCTACCA | -0.159
109 | CACACCTG | -0.191
110 | ATAATGAG | 0.0777
111 | AGGCACGG | -0.174
112 | CTCAGTTC | -0.0184
113 | AGATTGAT | 0.111
114 | AAGACGTG | -0.0345
115 | GCATAGTA | 0.112
116 | CATGTTGA | 0.284
117 | GCCGTCTA | -0.121
118 | ATCTGTCG | -0.0536
119 | CCATGCTA | -0.217
120 | ATCCCTTA | 0.0596
121 | TCTTCAAA | -0.00132
122 | GTCTGGAA | -0.065
123 | GACGTTAC | 0.0581
124 | AAGGAGCG | -0.0398
125 | AGGGTACC | -0.392

Row | Sequence | PBM E-score
126 | GCGACATA | -0.0158
127 | AAGATGGC | 0.0428
128 | GATATCCC | -0.0193
129 | AATTCACC | 0.17
130 | CAATGTGC | 0.0548
131 | GATATGCA | -0.0183
132 | ACGGATCC | -0.027
133 | ATGATCGA | 0.0659
134 | GTGCAACA | -0.0962
135 | TACCCTAA | 0.0534
136 | AGGTTTAT | 0.178
137 | GTGTGATA | 0.191
138 | CCTGTGCG | -0.0705
139 | CAACTTAA | 0.194
140 | CGATGTTA | 0.159
141 | AGTAGAAA | 0.151
142 | CACTTACC | 0.127
143 | GAAGTAAC | 0.0976
144 | TGCCATAA | -0.0526
145 | CGGGGAAA | 0.212
146 | CTCAGGTC | -0.238
147 | CATGACCC | -0.22
148 | CACTTGCC | -0.111
149 | GCCACCAC | -0.159
150 | CTCAACCC | -0.00281

Row | Sequence | PBM E-score
151 | ATTTATGG | 0.154
152 | GGAACAGA | 0.0538
153 | CTGCCTAA | -0.0827
154 | CATGTAGC | -0.126
155 | TCTTTGCA | 0.143
156 | AAGCGTGC | -0.0736
157 | GCATACGA | -0.00243
158 | ATGACCCG | -0.24
159 | CCGCAGAA | 0.0489
160 | CGTTTTCC | 0.0707
161 | AATACTCG | 0.22
162 | CTACAAGA | 0.0357
163 | CGTCTGTC | -0.171
164 | CGCGCACG | -0.124
165 | GACATGAA | 0.0129
166 | CGCTTTCA | 0.0618
167 | CTCTAACC | -0.125
168 | CAGCTCCG | 0.111
169 | CTTCTAAC | -0.108
170 | TAAGCCTA | 0.103
171 | AACTATAA | 0.159
172 | GGACTTCA | -0.164
